Results published in PMC12040169 (PLOS Biology, 2025).
Some of the results follow.

system: T1, C. trachomatis L2/434/Bu expressing GFP (CTL2-GFP); set-up: species or system HeLa; C. trachomatis total inclusion area by high-content imaging, normalised to DMSO; settings: total inclusion area; 28.5 h, 10 µM; inhibitor
T1 construct: L2/434/Bu GFP intracellular growth in HeLa cells
Outline: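 After bulk GFP and resorufin fluorescence reads, cells were fixed, stained with Hoechst and imaged by high-content microscopy. Inclusion area and number (GFP) stood in for chlamydial growth, nuclei count (Hoechst) for host cell viability. MICs were derived as for the bulk readout.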

Row | Structure (SMILES) | % of control remaining
1 | Cc1ccc(S(=O)(=O)NCCc2ccccn2)s1 [CBK269223] | 79.5127
2 | COc1nccnc1N1CCN(CCCn2c(=O)[nH]c3ccccc32)CC1 [CBK084226] | 103.519
3 | CC1CCCCC1NC(=O)CSc1cccc2cccnc12 (stereo not shown) [CBK058143] | 70.7906
4 | Cc1ccc(-c2nc3ccc(C)cc3c(C(=O)OCC(=O)c3cccc([N+](=O)[O-])c3)c2C)cc1 [CBK264436] | 102.239
5 | COc1cc(CN2CCNCC2)c2ccn(S(=O)(=O)c3ccccc3Cl)c2c1 [CBK144483T] | 56.4618
6 | COc1ccc(C(=O)N2CCC3(CC2)NC(=O)c2cc(C)ccc2O3)cc1C [CBK166277] | 115.926
7 | CC(C)C1OC(N2CCOCC2)=NC1=O (stereo not shown) [CBK070384] | 102.244
8 | O=C(c1cnccc1C(F)(F)F)N1Cc2ccccc2C1 [CBK200323] | 100.547
9 | O=C(Nc1nc(-c2cccnc2)cs1)c1ccccc1 [CBK287569] | 132.383
10 | CC(C)(C)c1ccc(C(=O)N2CCCCC2CO)cc1 (stereo not shown) [CBK073951] | 73.0532
11 | CS(=O)(=O)Nc1cccc2cc[nH]c12 [CBK159509] | 96.219
12 | Cn1cncc1CN(CCCn1ccnc1)Cc1ccccc1Cl [CBK283041] | 109.825
13 | Nc1nc(N2CCCCC2)nc2ccccc12 [CBK012270] | 65.6804
14 | CC(C)C(=O)N1CCC(n2nc(-c3cccs3)ccc2=O)CC1 [CBK284181] | 73.5811
15 | CSCCCNC(=O)c1ccc2c(c1)nc(N1CC[C@H](O)C1)n2C [CBK306807] | 79.6581
16 | Cc1nnc(SCC(=O)N2CCN(c3ccc(Cl)cc3)CC2)s1 [CBK307389] | 55.4503
17 | COc1cc(C(c2c(C(=O)O)[nH]c3ccccc23)c2c(C(=O)O)[nH]c3ccccc23)cc(I)c1O [CBK267804] | 123.796
18 | CSCCN1CCC(Oc2nccnc2OCCN2CCOCC2)CC1 [CBK082935] | 91.8724
19 | CN1CCN(C(=O)CN(CC(=O)N2CCN(C)CC2)S(=O)(=O)c2ccc(Cl)cc2)CC1 [CBK269627] | 109.412
20 | O=[N+]([O-])c1ccccc1S(=O)(=O)Nc1ccc(S(=O)(=O)Nc2ccccc2)cc1 [CBK264796] | 107.214
21 | O=C(CN1CCCC1Cn1cncn1)NCCc1ccsc1 (stereo not shown) [CBK305113] | 74.262
22 | CCN(CC)Cc1ccc(C(=O)N2CCC(c3ccncc3)CC2)o1 [CBK283051] | 72.4491
23 | CCCC(C)C(=O)Nc1ccncc1 (stereo not shown) [CBK057984] | 48.012
24 | CC1(C)Cc2c(cnn2-c2ccc(F)cc2)C(NS(C)(=O)=O)C1 (stereo not shown) [CBK307403] | 66.745
25 | CCc1nc2ccc(C(=O)Nc3ccc(NC(C)=O)cc3)cn2c1N(CC)Cc1ccc(OC)c(OC)c1 [CBK146994] | 95.608
26 | O=S1(=O)C=C(N2CCCCCC2)CC1 [CBK025571C] | 60.2399

Row | Structure (SMILES) | % of control remaining
27 | O=c1cc(O)c2ccccc2n1Cc1ccccc1Cl [CBK291255] | 115.64
28 | Cc1ccc(C(=O)Nc2nc(C)c(-c3n[nH]c(=S)n3C)s2)cn1 [CBK295327] | 104.324
29 | Nc1ccc(S(=O)(=O)O)c2cccc(S(=O)(=O)O)c12 [CBK261492N] | 97.5195
30 | COc1ccc([C@@]23CC[C@H](NC(=O)CSc4nccn4C)C[C@@H]2N(C)CC3)cc1OC [CBK036444] | 65.7174
31 | CC(C)CN1CCC[C@H]1c1nc(-c2ccc(-n3ccnc3)nc2)no1 [CBK288894] | 112.619
32 | CCNC(=O)N1CC2(CCN(CCOCC)CC2)c2ccccc21 [CBK136972] | 87.5339
33 | O=C(O)/C=C/C(=O)Nc1ccc(S(=O)(=O)NCc2ccco2)cc1 [CBK264500] | 104.775
34 | CC(C)N1CCC(CNC(=O)c2cccc(N3CCCC3=O)c2)CC1 [CBK282641] | 101.521
35 | NCc1oc(-c2ccccc2)cc1C(=O)O [CBK265941C] | 87.5189
36 | O=C(Cn1cc(C(=O)NCc2ccccc2)ccc1=O)NC1(c2ccccc2)CCCC1 [CBK285753] | 105.014
37 | COc1ccc(S(=O)(=O)NCCN2CCOCC2)c(C)c1C [CBK266479] | 118.191
38 | CN(C(=O)c1cc(S(=O)(=O)N2CCOCC2)ccc1F)C1CCCCC1 [CBK304580] | 61.8997
39 | Cc1sc2ncnc(SCC(=O)Nc3sc4c(c3C#N)CCCC4)c2c1-c1ccccc1 [CBK265938] | 82.261
40 | O=C(NCc1nnc(-c2cccs2)o1)C1c2ccccc2Oc2ccccc21 [CBK286297] | 114.746
41 | COC(C)CN(C)C(=O)c1oc2cc(C)ccc2c1C (stereo not shown) [CBK282043] | 123.071
42 | Cn1ccnc1C(NC(=O)N1CCCCC1)c1ccc(F)c(F)c1 (stereo not shown) [CBK283832] | 64.0971
43 | Cc1ccc(C(=O)C2=C(O)C(=O)N(CCCN(C)C)C2c2ccccn2)o1 (stereo not shown) [CBK269575] | 77.9316
44 | CC(C)NC(=O)N1CCCC2(C1)NCCc1c2[nH]c2ccccc12 (stereo not shown) [CBK046952] | 93.634
45 | Cn1ccnc1C1(O)CCN(C(=O)Nc2ccccc2F)CC1 [CBK282280] | 75.7144
46 | Cc1ccccc1-c1cc(C(=O)Nc2ccc(S(N)(=O)=O)cc2)c2cc(Cl)ccc2n1 [CBK267741] | 104.595
47 | O=C(c1ccc2ncccc2c1)N1CCN(C(=O)c2ccco2)CC1 [CBK144461] | 120.265
48 | Cn1c(CN2CCN(S(=O)(=O)c3ccccc3)CC2)nc2cc([N+](=O)[O-])ccc21 [CBK268321] | 78.7172
49 | CC(=O)NCCSc1cc(N2CCCC2)ncn1 [CBK105621] | 122.987
50 | Cc1c(Cc2c(Cl)cccc2Cl)c(=O)n(C)n1C [CBK113274] | 68.3889
51 | CC1(C)NC(C)(C)C(=N\O)/C(=N\O)C/1=N\O [CBK261512] | 85.9076
52 | Cc1ccc(C(=O)C2=C(O)C(=O)N(Cc3cccnc3)C2c2cccc([N+](=O)[O-])c2)cc1 (stereo not shown) [CBK264593] | 105.444
